Data from US20200085917A1 (UNIVERSITY OF PITTSBURGH OF THE COMMONWEALTH SYSTEM OF …, published 2020).

Tests used:
Assay in all cases: GST pull-down, LC-MS/MS
[1] = target: T1, Nipsnap1_IPI:IPI00115824.1 (mouse, UniProt O55125 36-284)
T1 sequence (looked up): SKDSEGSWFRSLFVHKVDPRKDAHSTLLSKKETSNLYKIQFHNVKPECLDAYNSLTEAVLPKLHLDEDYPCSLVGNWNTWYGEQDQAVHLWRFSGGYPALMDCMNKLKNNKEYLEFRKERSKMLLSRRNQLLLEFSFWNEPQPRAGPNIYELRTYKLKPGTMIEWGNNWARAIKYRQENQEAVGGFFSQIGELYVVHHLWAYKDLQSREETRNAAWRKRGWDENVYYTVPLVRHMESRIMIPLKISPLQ

Rdh13_IPI:IPI00229040.1 = target: T2, Rdh13_IPI:IPI00229040.1 (mouse, UniProt Q8CEE7 2-334)
T2 sequence (looked up): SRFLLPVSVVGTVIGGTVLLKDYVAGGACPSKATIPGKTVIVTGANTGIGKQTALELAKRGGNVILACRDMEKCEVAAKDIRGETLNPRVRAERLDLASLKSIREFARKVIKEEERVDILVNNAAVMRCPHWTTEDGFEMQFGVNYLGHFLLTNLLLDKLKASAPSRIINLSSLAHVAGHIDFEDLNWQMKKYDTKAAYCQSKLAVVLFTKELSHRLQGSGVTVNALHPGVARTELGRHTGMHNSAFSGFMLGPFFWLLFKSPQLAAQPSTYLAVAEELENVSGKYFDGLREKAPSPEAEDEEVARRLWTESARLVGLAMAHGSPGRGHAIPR

[2] = target: T3, Slc25a10_IPI:IPI00317074.3 (mouse, UniProt Q9QZD8 1-287)
T3 sequence (looked up): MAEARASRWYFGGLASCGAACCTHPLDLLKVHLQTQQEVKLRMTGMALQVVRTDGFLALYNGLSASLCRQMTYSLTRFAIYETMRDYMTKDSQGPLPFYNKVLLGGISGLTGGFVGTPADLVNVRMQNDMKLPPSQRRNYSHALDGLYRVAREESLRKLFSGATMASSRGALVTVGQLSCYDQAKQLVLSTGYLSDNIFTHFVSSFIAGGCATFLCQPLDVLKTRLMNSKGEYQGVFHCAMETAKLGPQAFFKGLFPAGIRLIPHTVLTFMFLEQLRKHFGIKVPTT

Agk_IPI:IPI00113606.2 = target: T4, Agk_IPI:IPI00113606.2 (mouse, UniProt Q9ESW4 1-421)
T4 sequence (looked up): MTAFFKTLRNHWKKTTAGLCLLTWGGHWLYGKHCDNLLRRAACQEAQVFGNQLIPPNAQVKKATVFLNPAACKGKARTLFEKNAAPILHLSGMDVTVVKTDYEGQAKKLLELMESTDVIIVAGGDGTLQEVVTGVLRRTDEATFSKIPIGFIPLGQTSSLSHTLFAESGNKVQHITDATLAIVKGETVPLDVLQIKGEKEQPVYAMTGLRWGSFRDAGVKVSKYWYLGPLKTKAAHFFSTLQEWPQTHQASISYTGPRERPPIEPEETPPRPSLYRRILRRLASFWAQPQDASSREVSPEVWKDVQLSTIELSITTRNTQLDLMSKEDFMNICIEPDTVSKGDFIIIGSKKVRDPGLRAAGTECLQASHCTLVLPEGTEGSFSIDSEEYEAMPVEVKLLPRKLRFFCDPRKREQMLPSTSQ

Echs1_IPI:IPI00454049.4 = target: T5, Echs1_IPI:IPI00454049.4 (mouse, UniProt Q8BH95 28-290)
T5 sequence (looked up): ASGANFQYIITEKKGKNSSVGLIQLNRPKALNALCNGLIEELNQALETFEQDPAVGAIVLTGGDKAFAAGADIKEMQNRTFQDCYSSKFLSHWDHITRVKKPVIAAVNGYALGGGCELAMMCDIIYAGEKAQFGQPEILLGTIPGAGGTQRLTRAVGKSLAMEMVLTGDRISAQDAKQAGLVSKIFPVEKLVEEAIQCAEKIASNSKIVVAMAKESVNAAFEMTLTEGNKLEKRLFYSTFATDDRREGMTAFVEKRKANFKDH

Hmgcl_IPI:IPI00127625.1 = target: T6, Hmgcl_IPI:IPI00127625.1 (mouse, UniProt P38060 28-325, limits assumed)
T6 sequence (looked up): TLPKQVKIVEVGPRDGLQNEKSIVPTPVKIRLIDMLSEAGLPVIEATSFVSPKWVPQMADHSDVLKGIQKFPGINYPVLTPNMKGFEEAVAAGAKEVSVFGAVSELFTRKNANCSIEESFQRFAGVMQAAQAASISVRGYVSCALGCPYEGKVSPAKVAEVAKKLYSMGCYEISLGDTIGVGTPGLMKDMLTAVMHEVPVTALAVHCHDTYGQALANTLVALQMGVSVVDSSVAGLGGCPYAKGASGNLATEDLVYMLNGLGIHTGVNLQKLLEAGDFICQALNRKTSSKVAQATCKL

Rhot1_IPI:IPI00123186.4 = Rhot1_IPI:IPI00123186.4 (mouse, UniProt Q8BG51 1-631, limits assumed)
Chain of Rhot1_IPI:IPI00123186.4 (Q8BG51 whole entry): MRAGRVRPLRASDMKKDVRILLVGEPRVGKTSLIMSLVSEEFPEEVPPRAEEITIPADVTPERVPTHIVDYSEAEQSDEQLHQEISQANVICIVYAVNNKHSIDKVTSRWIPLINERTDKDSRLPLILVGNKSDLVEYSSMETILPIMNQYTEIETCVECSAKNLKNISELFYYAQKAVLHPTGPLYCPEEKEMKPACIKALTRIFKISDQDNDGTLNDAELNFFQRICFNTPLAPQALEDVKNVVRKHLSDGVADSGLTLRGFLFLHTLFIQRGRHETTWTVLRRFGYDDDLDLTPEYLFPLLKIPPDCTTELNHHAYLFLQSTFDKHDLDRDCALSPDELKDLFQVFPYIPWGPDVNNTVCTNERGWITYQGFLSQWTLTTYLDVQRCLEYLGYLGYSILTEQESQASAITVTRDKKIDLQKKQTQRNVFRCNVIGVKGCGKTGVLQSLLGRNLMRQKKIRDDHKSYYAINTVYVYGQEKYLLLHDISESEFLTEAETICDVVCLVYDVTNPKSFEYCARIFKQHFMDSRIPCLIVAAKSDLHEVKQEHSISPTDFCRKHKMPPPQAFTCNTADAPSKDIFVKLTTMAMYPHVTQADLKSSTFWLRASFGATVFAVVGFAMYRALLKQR

[3] = target: Nup210l_IPI:IPI00356451.5 (mouse, UniProt Q9D2F7 33-1881, limits assumed)
Chain of UniProt Q9D2F7 (Q9D2F7 33-1881 limits assumed): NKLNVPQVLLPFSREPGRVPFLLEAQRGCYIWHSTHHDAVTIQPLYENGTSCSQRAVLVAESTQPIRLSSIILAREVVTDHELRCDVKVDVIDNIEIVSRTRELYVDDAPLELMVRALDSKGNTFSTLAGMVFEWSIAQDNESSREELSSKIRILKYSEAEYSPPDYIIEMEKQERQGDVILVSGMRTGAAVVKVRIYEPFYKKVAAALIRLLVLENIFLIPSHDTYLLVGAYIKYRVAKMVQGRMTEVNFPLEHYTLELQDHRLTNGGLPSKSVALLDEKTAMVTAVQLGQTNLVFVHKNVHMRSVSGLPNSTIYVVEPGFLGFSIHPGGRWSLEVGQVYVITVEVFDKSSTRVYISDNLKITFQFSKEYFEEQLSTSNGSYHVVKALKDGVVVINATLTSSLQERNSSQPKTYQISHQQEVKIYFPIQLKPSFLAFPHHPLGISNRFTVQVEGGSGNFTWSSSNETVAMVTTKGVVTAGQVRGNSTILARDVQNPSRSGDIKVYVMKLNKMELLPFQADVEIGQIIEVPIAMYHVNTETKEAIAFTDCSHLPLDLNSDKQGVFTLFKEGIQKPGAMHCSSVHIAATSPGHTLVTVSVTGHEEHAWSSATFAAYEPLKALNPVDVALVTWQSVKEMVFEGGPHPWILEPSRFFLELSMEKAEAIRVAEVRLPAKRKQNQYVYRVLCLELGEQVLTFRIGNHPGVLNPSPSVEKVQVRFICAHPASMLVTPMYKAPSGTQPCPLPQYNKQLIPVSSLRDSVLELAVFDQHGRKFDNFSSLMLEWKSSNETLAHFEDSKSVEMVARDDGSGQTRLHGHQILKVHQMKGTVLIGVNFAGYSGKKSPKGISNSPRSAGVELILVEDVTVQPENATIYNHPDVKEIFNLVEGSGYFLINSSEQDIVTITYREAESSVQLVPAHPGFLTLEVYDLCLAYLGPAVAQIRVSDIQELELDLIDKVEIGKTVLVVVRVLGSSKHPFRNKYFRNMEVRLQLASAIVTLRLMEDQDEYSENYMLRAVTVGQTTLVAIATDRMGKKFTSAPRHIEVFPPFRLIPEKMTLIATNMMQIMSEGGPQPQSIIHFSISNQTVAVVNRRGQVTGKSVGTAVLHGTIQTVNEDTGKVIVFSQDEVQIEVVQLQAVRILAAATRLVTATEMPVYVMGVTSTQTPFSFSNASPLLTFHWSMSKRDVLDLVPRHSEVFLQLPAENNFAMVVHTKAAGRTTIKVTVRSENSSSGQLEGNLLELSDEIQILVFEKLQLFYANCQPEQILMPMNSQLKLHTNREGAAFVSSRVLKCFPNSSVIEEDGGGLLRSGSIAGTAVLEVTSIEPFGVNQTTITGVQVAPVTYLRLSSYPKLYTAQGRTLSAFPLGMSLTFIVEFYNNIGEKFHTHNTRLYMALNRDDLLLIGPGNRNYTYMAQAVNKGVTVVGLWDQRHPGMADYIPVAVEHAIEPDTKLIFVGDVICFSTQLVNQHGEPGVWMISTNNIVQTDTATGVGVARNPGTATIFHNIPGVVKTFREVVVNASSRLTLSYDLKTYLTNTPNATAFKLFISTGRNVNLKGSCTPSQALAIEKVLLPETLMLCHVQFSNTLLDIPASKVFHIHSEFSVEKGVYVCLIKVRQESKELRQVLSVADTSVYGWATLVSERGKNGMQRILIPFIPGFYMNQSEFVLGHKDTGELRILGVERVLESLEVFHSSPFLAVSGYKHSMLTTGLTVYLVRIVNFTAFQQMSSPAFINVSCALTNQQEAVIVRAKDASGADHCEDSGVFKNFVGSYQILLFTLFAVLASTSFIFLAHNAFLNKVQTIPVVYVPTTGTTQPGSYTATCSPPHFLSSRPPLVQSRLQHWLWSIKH

- binding result [1]: no binding
- binding result (Rdh13_IPI:IPI00229040.1): no binding
- binding result [2]: no binding
- binding result (Agk_IPI:IPI00113606.2): no binding
- binding result (Echs1_IPI:IPI00454049.4): no binding
- binding result (Hmgcl_IPI:IPI00127625.1): no binding
- binding result (Rhot1_IPI:IPI00123186.4): no binding
- binding result [3]: no binding
B1: GST alone (other)
chain: not shown
notes: Negative control of the pull-downs; also called control GST
